Reference: article PMC10668032
The other results are listed elsewhere or left out. At the low end of the ranking the order means little.

What follows are sequences tested against SIX1-Q177R homeodomain (UniProt Q15475) (assay: universal protein binding microarray). Conditions: Universal all-10-mer PBM (8x60K, AMADID 030236), 300 nM GST-tagged protein, Alexa Fluor 488 anti-GST; buffer, salt, pH and temperature not stated; high values mean tight binding; most listed sequences are background and not binding sites; double strand, one strand shown.

| Sequence | binding signal |
| --- | --- |
| AGTCCAAG | -0.0372 E-score |
| GAGCGGGC | -0.0848 E-score |
| CTACAACA | 0.161 E-score |
| AAGGCCGG | -0.0941 E-score |
| GACCAACC | 0.0465 E-score |
| CGCTTCAA | -0.0806 E-score |
| GGTGCCTA | 0.171 E-score |
| GTGTACAA | 0.429 E-score |
| GAGTATCC | 0.199 E-score |
| AAGGGATC | 0.194 E-score |
| AAGCGGGT | 0.0964 E-score |
| AAGAGCGC | -0.198 E-score |
| AATGCATA | -0.104 E-score |
| TCATAGAA | -0.182 E-score |
| ACATAGTC | -0.164 E-score |
| CGATACAC | 0.402 E-score |
| TAGATGAA | -0.174 E-score |
| CAGGCGAC | -0.00654 E-score |
| CACATGCG | -0.0235 E-score |
| ATCGCCGC | 0.034 E-score |
| CACGGGGG | 0.319 E-score |
| TCAAGACA | 0.0267 E-score |
| ACAAGTAA | -0.184 E-score |
| GCGAACAC | 0.409 E-score |
| ATATCAAG | -0.136 E-score |

| Sequence | binding signal |
| --- | --- |
| AACATGTC | -0.0345 E-score |
| ATTTTAAG | -0.281 E-score |
| CTCCTAGC | -0.097 E-score |
| ACAGGTTA | -0.155 E-score |
| GCCGACGC | -0.0584 E-score |
| ATCTTGCG | -0.236 E-score |
| TGCCACCA | -0.144 E-score |
| GCGCATGA | 0.0225 E-score |
| CAGCACTG | -0.095 E-score |
| GTGAAGTA | -0.197 E-score |
| AAGCCTCC | -0.34 E-score |
| AGGCAAAC | -0.111 E-score |
| AAGAACGT | -0.166 E-score |
| CAACAAAA | -0.0545 E-score |
| AGTTACGC | -0.0795 E-score |
| ACAACTGA | -0.000625 E-score |
| TGCCGCAA | -0.0321 E-score |
| ATCACTTC | 0.0109 E-score |
| ACGAATGC | -0.154 E-score |
| GAAATGCC | -0.105 E-score |
| GACCATAC | -0.135 E-score |
| GGACGACA | 0.16 E-score |
| CACTATGA | 0.00301 E-score |
| CGGTACTA | -0.0595 E-score |
| AGGACTGC | -0.366 E-score |

| Sequence | binding signal |
| --- | --- |
| ACTCATCC | 0.0455 E-score |
| AGCTTTCA | 0.0659 E-score |
| ATACATGA | -0.0207 E-score |
| CGTACTAG | -0.0427 E-score |
| ATCCTCGG | 0.0467 E-score |
| CGGACCAC | 0.0274 E-score |
| CTGGGTGA | 0.0346 E-score |
| AAATGGCT | -0.141 E-score |
| ACGAGTAG | 0.0547 E-score |
| CTGCCTCC | -0.147 E-score |
| ACCAAAGG | 0.126 E-score |
| CTGCGGGC | -0.116 E-score |
| GTAGGAGA | -0.128 E-score |
| AGACCGTG | 0.045 E-score |
| ATCACGCC | 0.0868 E-score |
| ACCTAGGA | 0.0894 E-score |
| GCCTCCGA | -0.12 E-score |
| AATACTCT | 0.0402 E-score |
| GTAATTTA | -0.0893 E-score |
| CCGGTAGC | -0.113 E-score |
| TGAATCCA | -0.225 E-score |
| CTGTCGAC | -0.0196 E-score |
| AACGTGAC | -0.0839 E-score |
| GGAGCTCA | -0.105 E-score |
| AGAAAATA | -0.191 E-score |

| Sequence | binding signal |
| --- | --- |
| GTCGTGCA | 0.181 E-score |
| CTGTCCCC | -0.103 E-score |
| AAAAGAAC | -0.0108 E-score |
| GCGTCCAA | -0.115 E-score |
| GAGGGATC | 0.213 E-score |
| ACAGGTGA | 0.0476 E-score |
| AAACCGCC | -0.015 E-score |
| ATAAGAGA | -0.263 E-score |
| AGCATCTC | -0.248 E-score |
| AGTTATAC | -0.0666 E-score |
| CTCTGAAG | -0.0734 E-score |
| CCTTGTAG | 0.043 E-score |
| CAGCAGAG | -0.102 E-score |
| CGTATGTC | -0.139 E-score |
| AGCCTAGA | -0.249 E-score |
| ACCTCAAG | -0.0542 E-score |
| ACTGGCAA | 0.00527 E-score |
| GGCTACAA | -0.208 E-score |
| CAGTTAAC | 0.0497 E-score |
| TAACTGTA | -0.0917 E-score |
| TATACCCA | 0.192 E-score |
| AATCGTGA | -0.127 E-score |
| ACAGTGCT | 0.0383 E-score |
| GCATACAC | 0.406 E-score |
| GTCAATGA | -0.0608 E-score |

| Sequence | binding signal |
| --- | --- |
| ATTCCGCC | -0.186 E-score |
| CCCACGAG | 0.113 E-score |
| CGTTAAAC | 0.033 E-score |
| GCGGCCAC | -0.17 E-score |
| CACACGGG | 0.332 E-score |
| GTCATCAA | -0.0212 E-score |
| AGAACGCT | -0.179 E-score |
| AAGCAGGT | 0.00317 E-score |
| GCGGCGCA | 0.0113 E-score |
| ACAGGAGT | 0.196 E-score |
| AACCGCAA | -0.068 E-score |
| ATCTCGCG | -0.179 E-score |
| AGACCCCA | 0.175 E-score |
| GGAGACAC | 0.397 E-score |
| GCCGACTA | 0.076 E-score |
| CTGCAAAA | -0.0735 E-score |
| AGATCTCC | -0.243 E-score |
| GCAGGCAA | -0.123 E-score |
| AGTCTACG | -0.145 E-score |
| AAGCGAAT | -0.228 E-score |
| CTCACCAC | 0.0101 E-score |
| CGGGCCTC | -0.229 E-score |
| GATTAGCC | -0.0371 E-score |
| GCTTCACA | 0.0313 E-score |
| GAGCAATA | -0.0893 E-score |

| Sequence | binding signal |
| --- | --- |
| ATCCTTGA | -0.0664 E-score |
| GGGGTCAC | 0.29 E-score |
| TCGAGACA | 0.0319 E-score |
| CATAACAC | 0.426 E-score |
| CCTCGTGA | -0.131 E-score |
| ATTCAATC | -0.0721 E-score |
| ACGGCTGG | -0.0745 E-score |
| TTAAAGAA | -0.199 E-score |
| TATATCAA | 0.0193 E-score |
| CTGCGAGC | -0.155 E-score |
| ATCGGTGA | 0.0724 E-score |
| AAGCCTTA | -0.237 E-score |
| ACACCAGC | 0.464 E-score |
| ACTAGAGC | 0.0472 E-score |
| CACACGGA | 0.253 E-score |
| CACCTACC | 0.267 E-score |
| CGTAGTAA | -0.111 E-score |
| CGTATGAC | 0.199 E-score |
| ACTTTCCG | -0.218 E-score |
| AATGCCCC | -0.0463 E-score |
| GAACAGAA | -0.193 E-score |
| CTCTCTTA | -0.156 E-score |
| ATCGGCGG | 0.0227 E-score |
| TGGCAAAA | -0.247 E-score |
| ATTATGTA | -0.178 E-score |

| Sequence | binding signal |
| --- | --- |
| ATTGAGCC | -0.148 E-score |
| ACCTGGGC | 0.0617 E-score |
| CCAGCACG | -0.0225 E-score |
| CCAAGGGC | -0.291 E-score |
| ATATCGAA | -0.144 E-score |
| GATTACGC | 0.0363 E-score |
| ACGTCGTA | 0.0312 E-score |
| CGCCATCC | 0.0437 E-score |
| CGTCGCGA | -0.267 E-score |
| CCGTGATC | 0.165 E-score |
| CGAACGGC | -0.235 E-score |
| ACTCGGCC | 0.07 E-score |
| GGTCGTAA | 0.0564 E-score |
| GCCGAGCC | -0.146 E-score |
| CGGACCAA | -0.075 E-score |
| GAGTACAC | 0.436 E-score |
| GGCCGCAA | -0.102 E-score |
| CACGGCGG | 0.129 E-score |
| ACTCGCAT | 0.0974 E-score |
| CGCTACTA | -0.0358 E-score |
| AACTCCCC | 0.12 E-score |
| ATAAACGG | -0.0183 E-score |
